Data as given in the supplement of paper PMC10126150.
Values marked as one replicate rest on one cluster of the flow cell; about a third of the high ones do not repeat.

System: ATP
Test: switch fluorescence ratio, 500 uM ATP over buffer (Cy3 cluster intensity, sum of 5 cycles each) (fold (ratio)); higher = stronger signal-on switching upon ATP binding; sequences stand for … in TCGTCGGCAGCGTCAGATGTGTATAAGAGACAGTTTTTTTTTTTTTTTTTTTTTTTTT…TC
Conditions: aptamer strand: ATP DNA aptamer (quencher-CACCTGGGGGAGTATTGCGGAGGAAGG + anchor), 100 nM annealed; ATP concentration: 500 uM; one replicate
In short: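 Clusters with intensities outside 100-1000 RFU were excluded. The remaining Cy3-labelled switching-strand clusters on a modified Illumina MiSeq flow-cell had been annealed to 100 nM quencher-labelled ATP aptamer and imaged in selection buffer, then after 15 min with 500 uM ATP at 22 °C, for five cycles separated by NaOH stripping and re-annealing. The fluorescence ratio, averaged per switch-domain sequence, is each cluster's summed target-cycle Cy3 intensity over its summed buffer-cycle Cy3 intensity.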
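Further: ATP exposure 15 min at 22 °C before imaging.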

Sequence	switch fluorescence ratio
TTCTTACAT	1.05
ATCGTGCAGG	0.961
GCTATCAAAC	1.02
TTGTAAAACA	0.941
TGTGGGGACG	0.967
GTCGTCTATT	0.971
AGTCTGAGGC	1.02
TTTCGAGCC	1.01
TTTCGCTATT	1.02
CCGGCTCTGT	1.04
CGGTACATCC	1.06
GCACCTATCC	1.66
TTGCTGGTG	1.03
GCGCATCGAG	1.08
GATTCGTGTT	0.972
TAAATTACAT	0.981
AAGGTTTCGC	1.02
TCGTGTAAAA	0.954
GATAGGTGTG	1.06
CTGGCCGAA	1.01
GTGGTTGGG	0.945
CTGCAAGTTG	1.1
TATGCCCTCC	1.05
AATGAACATC	1.02
AATCTTAATA	0.976
TACGCGTAGA	1

Sequence	switch fluorescence ratio
TTTCAGCTAT	1.05
GGGGCGCTAC	1.45
TGGCCAAGCG	1.05
GGAGGTACAA	1.03
GATGAAGCTA	1.02
CTTTTAGGCA	1
TTAGGGGAAC	0.973
TTACTGATGA	0.975
ATAACTGTCT	0.99
ACTTTCAGGA	0.993
TGAACGGTCG	1.02
GCGGGAAGTA	1.03
TAAGGTCGTT	0.997
AATTTGTGA	0.977
ACTTGACTT	1.13
GTTGGCGA	1
ATTTGAATCT	1.04
CATATTGAAC	0.99
AGAGCATGAA	1.04
TCTAACATTA	1
GGGTGTTGCA	1.01
GTTTTCTAGT	0.978
CGAGGGCATA	1.8
GAAATGATAG	1.01
TGCAATGTCT	1.06
CCTGTACTGG	1.06

Sequence	switch fluorescence ratio
CGTGTGAT	1.01
CGCTTAATCG	0.967
GGATGTTGGC	1.03
TCGATGGCGT	1.04
CGTAAGAGGG	1.03
AAGCTTCGAT	1
ATCCTAAGCT	1.05
TTGCCGTCAG	1.06
TTTATTTC	0.973
TGTTTGTT	0.981
TAGTTTGATA	0.976
CCGGTGCAGG	1.28
ATCCAGGAGA	1
TTGGCTGAGA	1.02
TGTTAACGTC	1.04
CGTCGGACGC	1.08
GAAACTAAAC	1.07
TTTTATGAGT	1.04
GGTTCCAGTT	0.937
TTCCCAGGGG	4.38
ATTGCGAATA	0.978
TTTCGCCCTC	1.05
TACGATACGC	1.45
TAGATGGAGA	0.97
CCATGAATGG	0.983
TACCAATGTG	1.15

Sequence	switch fluorescence ratio
TCGCCCTGCC	1.04
CACAAACGGT	1.35
AACGCTGTGT	0.983
CATGGACACG	1.02
CATCCTGATC	1.21
TCGTCCATT	0.965
TAAAGTGAGG	0.989
CCTCTAGATG	2.8
CGATAGTCG	0.999
GGGTCGTGAT	0.964
CCGGTGTAGT	1.06
CAGCGGGCCT	1.02
GATAGTCGTT	0.998
GCCCGAAGAC	2.69
AGGCCGGACG	0.959
TGGGCTGATG	0.955
GCACAAGAGG	1.01
CTATTTCATT	1.01
GTGTATCAAC	0.951
CTGACACAGA	1.05
GGATATTATT	0.978
AGGGCGCGCG	1.02
GGTTCCCGGG	0.993
GTGAAGAAAT	1.02
TCCGTAGGG	1.01
GATCAAACTG	1.04

Sequence	switch fluorescence ratio
AAATCAAGTC	1.06
AGTTTCGTGC	1.02
GGTCTTGTCG	0.927
TGGTTAGTCT	0.965
CAACTCTGTG	0.986
AGGGTGGCTG	0.906
AGACGGGA	1.01
TACAGGCCTG	1.01
TTCTAAACAA	1.02
AGATATGTCG	1.07
GGGGTTACCT	1.07
ATATTGGTCC	0.991
GTTAAGTGGG	0.983
TGATTATCAG	0.995
TTTCTGAAG	1.04
ACACAATCCA	1.01
TCGGGCTTCT	1.04
TTCCGCGACC	3.26
TCTATATTAA	0.962
CGTTACAGCC	1.04
AACATAAGAA	1.03
TATCCCTTTC	1.18
TCGGAAGAGT	1.04
AGATGAATTT	0.97
ACCACAGGCA	1.05
GGTGTGAGAC	0.978

Sequence	switch fluorescence ratio
GGGTTCGGGT	0.966
TTAACCTTA	1.13
TATCTTAAGC	0.998
CCGGACAAGG	1.05
TATCTAGCTC	1
GGTCTATGAG	0.979
TTCTAAGATG	1.02
GGAGAAAAT	0.966
TTCCTGGATC	1.01
TCTTCATTGA	0.987
CTGTGGCGGG	0.946
AGGTTCCAAG	0.964
AGTGAGCCAC	1.05
GATTGTCATT	0.965
GGATACTCGA	1.01
TAGATAAGTC	0.948
ATAGCGAATG	0.996
AGCTGAGTCG	0.933
TCCGCCAGCG	1.88
CACGGTTCTA	0.997
GTTTTGCTGA	1.02
ATTAGCAACG	1.01
CGTTACCGAA	0.94
TGTCCGTTG	1.05
